Experimental findings from PubChem BioAssay AID463173 (ICCB-Longwood Screening Facility, Harvard Medical School, 2010) are described below.

The structures appear in SMILES notation. About 1,700 (3.3%) of roughly 52,000 compounds were called active. No stated cut-off is given here; in the data, active means survival mostly below about 52% (no sharp cut-off); inactive means mostly above about 56%. Some of the results follow.

This assay relates to Wild type. Kind of assay: S. aureus survival, RN4220 and DeltatarO strains – OD600, teichoic acid synthesis inhibitors, primary screen (AID 463173). To be noted: S. aureus RN4220 wild type/DeltatarO growth, OD600, 18 h, hits give low values, screened at 18.75 µg/mL (by protocol).
With `O=C(CSc1ncc(S(=O)(=O)c2ccc(Br)cc2)c(=O)[nH]1)Nc1ccc2c(c1)OCCO2`, the survival was inactive: 87%.
`Cc1ccc(CNC(=O)Cn2c3ncccc3c(=O)n2-c2ccc(C)cc2)cc1`: the survival is inactive: 135%.
The result for `COc1ccccc1N1CCN(c2cc(C)nc3nncn23)CC1` reads inactive: 90%; that for `COc1ccc(C)c2sc(N3CCN(C(=O)c4ccco4)CC3)nc12`, active: -1%.
Consider `CCOc1ccc(CNC(=O)CSc2c3c(nc4ccc(Cl)cc24)CCCC3)cc1`, for which the survival is inactive: 84%.
Under `CC(C)c1cc(-c2nc(-c3cccc(Cl)c3)no2)n[nH]1` stands inactive: 131%; under `Cc1nn2c(=O)cc(COC(=O)c3ccc(NC(=O)COc4ccccc4F)cc3)nc2s1`, inactive: 143%; under `Cc1ccc2oc(C(=O)Nc3sc4c(c3C(=O)NCc3ccco3)CCC4)cc(=O)c2c1`, inactive: 84%.
Under `Cc1nc2c(c(C)nn2C(C)(C)C)c(C)c1CCC(=O)Nc1ccc(F)cc1` stands inactive: 93%; under `CC(=O)NC(CC(=O)O)c1ccc(F)cc1` (configuration not stated), inactive: 107%.
Under `CC(=O)c1ccc(N2CCN(C(=O)CCCn3c(=O)[nH]c4ccsc4c3=O)CC2)cc1` stands inactive: 66%.
`Cn1c(C(=O)NCc2cccc(Cl)c2)cc2oc3ccccc3c21`: the survival was inactive: 99%.
The result for `Cc1nn(CC(=O)NCc2ccc(N(C)C)cc2)c(=O)c2nn(-c3ccccc3)c(C)c12` reads inactive: 88%.
Under `COc1ccc(C(CC(=O)Nc2ccc(Br)cn2)N2Cc3ccccc3C2=O)cc1` (configuration not stated) stands inactive: 59%; under `COCCCNC(=O)c1ccc(Cn2c(=O)c3cccn3c3cccnc32)cc1`, inactive: 95%.
Under `O=[N+]([O-])c1ccc(O)c(-c2ccnc3cc(-c4ccccc4)nn23)c1` stands inactive: 29%; under `Cc1ccc(Cn2c(CN3CCN(c4cccc(Cl)c4)CC3)nc3c2c(=O)n(C)c(=O)n3C)cc1`, inactive: 110%; under `Cn1ccnc1-c1ccc(-c2nccn2C)cc1`, inactive: 110%.
As for `COc1ccccc1CCNC(=O)C1CCN(c2nnc(C)c3c(C)n(-c4ccc(C)cc4)nc23)CC1`, the survival was inactive: 58%.
The result for `COc1ccc(NC(=O)CC(C)S(=O)(=O)c2cc3c(cc2C)NC(=O)CO3)cc1OC` (configuration not stated) reads inactive: 79%; that for `O=C(Nc1nnc(S(=O)(=O)N2CCCCCC2)s1)c1ccc(Cl)cc1`, inactive: 74%.
Under `CCCNc1nc(Cl)nc(Cl)n1` stands inactive: 99%; under `Cc1ccc2c(=O)cc(C(=O)Nc3c(C(=O)c4ccc(F)cc4)oc4ccccc34)oc2c1C`, inactive: 84%; under `CSc1nn(CC(=O)Nc2cc(C)ccc2C)c(N)c1S(=O)(=O)c1ccccc1`, inactive: 45%.
Under `COc1ccccc1CNC(=O)C1CCN(c2nnc(C)c3c(C)n(-c4ccccc4)nc23)CC1` stands inactive: 86%.
Consider `CC(C)CC(=O)OCc1cc(=O)n2nc(C3CCCCC3)sc2n1`, for which the survival is inactive: 67%.
Under `CCC(CC)C(=O)Nc1cc(-c2nc3cccnc3s2)ccc1C` stands inactive: 96%; under `Cc1cccc(C)c1OC(=O)CSc1nnc(-c2ccc3c(c2)OCO3)o1`, inactive: 84%.
Under `CCOC(=O)Cn1c(=O)oc2cc(S(=O)(=O)N3CCN(c4ccc(F)cc4)CC3)ccc21` stands inactive: 130%.
Under `CCOc1ccc(CC(C(=O)NN)C(=O)NN)cc1CN(C)C` stands inactive: 115%; under `Cc1ccc(NC(=O)CN2C(=O)CC(c3ccc(C)c(C)c3)=Nc3ccccc32)cc1`, inactive: 68%; under `COc1ccc(CCNC(=O)c2c(C)oc3ncn(CC(C)C)c(=O)c23)c(OC)c1`, inactive: 78%.
Take `O=C(NC1CCCCC1)C(c1ccncc1)N(CC1CCCO1)C(=O)C(F)(F)F` (configuration not stated): the survival is inactive: 103%.
Take `COc1ccc(Nc2c(-c3ccsc3)nc3nc(C)cc(C)n23)cc1`: the survival was inactive: 97%.
Regarding `Cc1c(C(=O)O)sc2nc(-c3ccccc3)cn12`, the survival is inactive: 94%.
Under `CC(C)C(=O)Nc1nnc(S(=O)(=O)N2c3ccccc3CC2C)s1` (configuration not stated) stands inactive: 81%; under `CCSc1nc2ccccc2c(OCc2cc(C(=O)OC)ccc2OC)c1C(=O)OC`, active: -15%; under `COC(=O)c1c(C)sc(-c2c(-c3ccc(OC)c(F)c3)[nH]c3c2c(=O)n(C)c(=O)n3C)c1O`, inactive: 111%.
The result for `Cc1ccc(C(C)C)c(OCC(=O)Nc2ccc(O)c(-c3nc4cc(Cl)ccc4o3)c2)c1` reads inactive: 74%; that for `CC1(C)Cc2ccccc2-c2nc(NN)[nH]c(=O)c21`, inactive: 100%; that for `CCCOc1cccc(C(=O)Nc2cccc(NC(=O)c3ccc(Cl)cc3Cl)c2)c1`, inactive: 91%.
As for `O=C(Cn1cc(C(=O)c2cccs2)c2ccccc21)Nc1ccc(Br)cc1`, the survival was inactive: 108%.
The result for `O=C1CCSC2(C(=O)N(Cc3ccc(F)cc3)c3ccccc32)N1c1cccc(F)c1` (configuration not stated) reads inactive: 74%; that for `CCN1C(=O)c2ccccc2S(=O)c2ccc(C(=O)NCc3ccc(Cl)cc3)cc21` (configuration not stated), inactive: 78%; that for `CCN(c1cccc(C)c1)S(=O)(=O)c1c(C)nc2sc(C)cn2c1=O`, inactive: 81%.
The result for `CCOC(=O)c1c(-c2ccccc2)oc2ccc(OCc3cccc(Br)c3)cc12` reads inactive: 55%.
The result for `COc1ccc(C(=O)Oc2cc(-c3ccc(OC)c(OC)c3)cc(=O)c3c(C)oc(C)c23)cc1` reads inactive: 87%; that for `CCS(=O)(=O)Nc1ccc(-c2cn3c(C)csc3n2)cc1`, inactive: 78%.
As to `COc1ccc2[nH]c(=O)c(C(c3nnnn3Cc3ccccc3)N(C)C3CCCCC3)cc2c1` (configuration not stated), the survival is inactive: 108%.
The result for `COc1cccc(C(c2sc3nc(-c4ccco4)nn3c2O)N2CCN(C)CC2)c1` (configuration not stated) reads inactive: 78%.
In the case of `COc1ccc(CNC(=O)CN(C)S(=O)(=O)c2ccc3c(c2)c(=O)n(C)c(=O)n3C)cc1`, the survival was inactive: 164%.
On to `COc1ccc(CNC(=O)c2cccn2-c2nnc(N3CCCCC3)s2)c(OC)c1`, for which the survival is active: -2%.
Under `O=C(NCc1cccnc1)c1c(O)c2cccc3c2n(c1=O)CC3` stands inactive: 104%.
Under `CC(C)c1ccccc1NC(=O)Cn1cnc2c1c(=O)n(C)c(=O)n2C` stands inactive: 93%.
Under `COc1ccc(-c2cc(C(=O)NCCc3ccccc3)c3c(-c4ccc(Cl)cc4)[nH]nc3n2)cc1` stands inactive: 66%.
Take `COc1ccc(CCNC(=O)CS(=O)(=O)Cc2nc(-c3cccc(Cl)c3)oc2C)cc1OC`: the survival is inactive: 70%.
Under `CCCNC(=O)c1c(NC(=O)c2ccccc2)sc2c1CCC(C(C)(C)C)C2` (configuration not stated) stands active: 2%.
